Test results reported in the supplement of paper PMC4604168 (melanoma cell lines).
The list shows a part of the results. Repeats are few or missing, and single values can be far off.

Each compound was assayed on A2058 (assay: cell count relative to DMSO control; melanoma cells; higher = more viable cells). Details: library dose: low library concentration; 72 h.
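Further: cell number obtained by counting DAPI-stained nuclei in high-throughput microscope images with image analysis software, screen run in 1,536-well plates.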

Row | Compound | cell count [%]
1 | O=C(CCCCCCC(=O)Nc1ccccc1)NO [vorinostat] + CC(C)CCN1c2nc(Nc3cc(F)c(O)c(F)c3)ncc2N(C)C(=O)C1C [BID1870] (first compound 0.08 µM, partner dose 0.2 µM) | 85.8
2 | Cn1c(Nc2ccc(C(F)(F)F)cc2)nc2cc(Oc3ccnc(-c4ncc(C(F)(F)F)[nH]4)c3)ccc21 + Cn1cc(/C=C2\C(=O)Nc3cccnc32)c2ccccc21 [GW441756] (first compound 0.08 µM, partner dose 0.4 µM) | 95.1
3 | Nc1cccc2c1CN(C1CCC(=O)NC1=O)C2=O (centres undefined) [lenalidomide] + O=c1cc(-c2cccc3c2Sc2ccccc2S3)oc(N2CCOCC2)c1 [KU55933] (first compound 1 µM, partner dose 1 µM) | 92.8
4 | O=C(CCCCCCC(=O)Nc1ccccc1)NO [vorinostat] + COc1cc2ncnc(Nc3ccc(Oc4ccccc4)cc3)c2cc1OC [SrcI1] (first compound 0.08 µM, partner dose 2 µM) | 113
5 | Nc1cccc2c1CN(C1CCC(=O)NC1=O)C2=O (centres undefined) [lenalidomide] + CC(C)CCN1c2nc(Nc3cc(F)c(O)c(F)c3)ncc2N(C)C(=O)C1C [BID1870] (first compound 1 µM, partner dose 0.2 µM) | 95.8
6 | C#Cc1cccc(Nc2ncnc3cc(OCCOC)c(OCCOC)cc23)c1 [erlotinib] + Cn1cc(/C=C2\C(=O)Nc3cccnc32)c2ccccc21 [GW441756] (first compound 0.8 µM, partner dose 0.4 µM) | 88.5
7 | COCC[n+]1c2c(n(Cc3cnccn3)c1C)C(=O)c1ccccc1C2=O + Cn1cc(/C=C2\C(=O)Nc3cccnc32)c2ccccc21 [GW441756] (first compound 0.0004 µM, partner dose 0.4 µM) | 68.4
8 | COCC[n+]1c2c(n(Cc3cnccn3)c1C)C(=O)c1ccccc1C2=O + CCCCCCCCCCCC1=C(O)C(=O)C=C(O)C1=O [Embelin] (first compound 0.0004 µM, partner dose 1.2 µM) | 71.2
9 | O=C(CCCCCCC(=O)Nc1ccccc1)NO [vorinostat] + COc1cc(N2CCC(N3CCN(C)CC3)CC2)ccc1Nc1ncc(Cl)c(Nc2ccccc2S(=O)(=O)C(C)C)n1 [NVP-TAE684] (first compound 0.08 µM, partner dose 0.08 µM) | 91.6
10 | Nc1cccc2c1CN(C1CCC(=O)NC1=O)C2=O (centres undefined) [lenalidomide] + O=S(=O)(c1ccccc1)N(CC(F)(F)F)c1ccc(C(O)(C(F)(F)F)C(F)(F)F)cc1 [T0901317] (first compound 1 µM, partner dose 1.4 µM) | 89.7
11 | Cn1c(Nc2ccc(C(F)(F)F)cc2)nc2cc(Oc3ccnc(-c4ncc(C(F)(F)F)[nH]4)c3)ccc21 + COc1ccc2c(c1)CCC1C2CCC2(C)C(NCCCCCCN3C(=O)C=CC3=O)CCC12 [U73122] (first compound 0.08 µM, partner dose 0.4 µM) | 69.5
12 | Cn1c(Nc2ccc(C(F)(F)F)cc2)nc2cc(Oc3ccnc(-c4ncc(C(F)(F)F)[nH]4)c3)ccc21 + O=C1NC(=O)/C(=C/c2ccc(-c3ccc(F)cc3O)o2)S1 [AS252424] (first compound 0.08 µM, partner dose 1 µM) | 92.8
13 | COCC[n+]1c2c(n(Cc3cnccn3)c1C)C(=O)c1ccccc1C2=O + O=c1cc(-c2cccc3c2Sc2ccccc2S3)oc(N2CCOCC2)c1 [KU55933] (first compound 0.0004 µM, partner dose 1 µM) | 58
14 | O=C(CCCCCCC(=O)Nc1ccccc1)NO [vorinostat] + COc1ccc2c(c1)CCC1C2CCC2(C)C(NCCCCCCN3C(=O)C=CC3=O)CCC12 [U73122] (first compound 0.08 µM, partner dose 0.4 µM) | 108
15 | C#Cc1cccc(Nc2ncnc3cc(OCCOC)c(OCCOC)cc23)c1 [erlotinib] + c1cc(-c2cnn3cc(-c4ccc(OCCN5CCCCC5)cc4)cnc23)ccn1 [Dorsomorphin] (first compound 0.8 µM, partner dose 0.4 µM) | 111
16 | C#Cc1cccc(Nc2ncnc3cc(OCCOC)c(OCCOC)cc23)c1 [erlotinib] + COc1cc2ncnc(Nc3ccc(Oc4ccccc4)cc3)c2cc1OC [SrcI1] (first compound 0.8 µM, partner dose 2 µM) | 92.4
17 | Nc1cccc2c1CN(C1CCC(=O)NC1=O)C2=O (centres undefined) [lenalidomide] + CCN(CC)CCCCNc1ncc2cc(-c3cc(OC)cc(OC)c3)c(NC(=O)NC(C)(C)C)nc2n1 [PD173074] (first compound 1 µM, partner dose 0.1 µM) | 107

Row | Compound | cell count [%]
18 | COCC[n+]1c2c(n(Cc3cnccn3)c1C)C(=O)c1ccccc1C2=O + COc1ccc2c(c1)CCC1C2CCC2(C)C(NCCCCCCN3C(=O)C=CC3=O)CCC12 [U73122] (first compound 0.0004 µM, partner dose 0.4 µM) | 82.5
19 | Cn1c(Nc2ccc(C(F)(F)F)cc2)nc2cc(Oc3ccnc(-c4ncc(C(F)(F)F)[nH]4)c3)ccc21 + O=C(Nc1ccccc1)c1cc([N+](=O)[O-])ccc1Cl [GW9662] (first compound 0.08 µM, partner dose 2 µM) | 89.7
20 | C#Cc1cccc(Nc2ncnc3cc(OCCOC)c(OCCOC)cc23)c1 [erlotinib] + CC(C)CCN1c2nc(Nc3cc(F)c(O)c(F)c3)ncc2N(C)C(=O)C1C [BID1870] (first compound 0.8 µM, partner dose 0.2 µM) | 93.2
21 | Nc1cccc2c1CN(C1CCC(=O)NC1=O)C2=O (centres undefined) [lenalidomide] + O=C(O)C(=O)Nc1sc2c(c1C(=O)O)CCNC2 [TCS401] (first compound 1 µM, partner dose 1.66667 µM) | 107
22 | C#Cc1cccc(Nc2ncnc3cc(OCCOC)c(OCCOC)cc23)c1 [erlotinib] + COC(=O)c1sccc1S(=O)(=O)Nc1ccc(Nc2ccccc2)cc1OC [GSK0660] (first compound 0.8 µM, partner dose 1 µM) | 95
23 | COCC[n+]1c2c(n(Cc3cnccn3)c1C)C(=O)c1ccccc1C2=O + COC(=O)c1sccc1S(=O)(=O)Nc1ccc(Nc2ccccc2)cc1OC [GSK0660] (first compound 0.0004 µM, partner dose 1 µM) | 47.9
24 | COCC[n+]1c2c(n(Cc3cnccn3)c1C)C(=O)c1ccccc1C2=O + c1cc(-c2cnn3cc(-c4ccc(OCCN5CCCCC5)cc4)cnc23)ccn1 [Dorsomorphin] (first compound 0.0004 µM, partner dose 0.4 µM) | 33.6
25 | COCC[n+]1c2c(n(Cc3cnccn3)c1C)C(=O)c1ccccc1C2=O + COc1cc(N2CCC(N3CCN(C)CC3)CC2)ccc1Nc1ncc(Cl)c(Nc2ccccc2S(=O)(=O)C(C)C)n1 [NVP-TAE684] (first compound 0.0004 µM, partner dose 0.08 µM) | 55.4
26 | Cn1c(Nc2ccc(C(F)(F)F)cc2)nc2cc(Oc3ccnc(-c4ncc(C(F)(F)F)[nH]4)c3)ccc21 + COc1ccc(-c2ccc3c(N4CCOCC4)nc(N4C[C@@H](C)O[C@@H](C)C4)nc3n2)cc1CO [KU0063794] (first compound 0.08 µM, partner dose 0.02 µM) | 72.8
27 | C#Cc1cccc(Nc2ncnc3cc(OCCOC)c(OCCOC)cc23)c1 [erlotinib] + Oc1cc(-c2nc(-c3ccccc3)[nH]c2-c2ccncc2)ccc1Cl [L779450] (first compound 0.8 µM, partner dose 0.2 µM) | 97.7
28 | Nc1cccc2c1CN(C1CCC(=O)NC1=O)C2=O (centres undefined) [lenalidomide] + O=C(Nc1ccccc1)c1cc([N+](=O)[O-])ccc1Cl [GW9662] (first compound 1 µM, partner dose 2 µM) | 94.1
29 | Nc1cccc2c1CN(C1CCC(=O)NC1=O)C2=O (centres undefined) [lenalidomide] + Oc1cc(-c2nc(-c3ccccc3)[nH]c2-c2ccncc2)ccc1Cl [L779450] (first compound 1 µM, partner dose 0.2 µM) | 99.1
30 | O=C(CCCCCCC(=O)Nc1ccccc1)NO [vorinostat] + Oc1cc(-c2nc(-c3ccccc3)[nH]c2-c2ccncc2)ccc1Cl [L779450] (first compound 0.08 µM, partner dose 0.2 µM) | 110
31 | Nc1cccc2c1CN(C1CCC(=O)NC1=O)C2=O (centres undefined) [lenalidomide] + COc1cc(N2CCC(N3CCN(C)CC3)CC2)ccc1Nc1ncc(Cl)c(Nc2ccccc2S(=O)(=O)C(C)C)n1 [NVP-TAE684] (first compound 1 µM, partner dose 0.08 µM) | 84.4
32 | COCC[n+]1c2c(n(Cc3cnccn3)c1C)C(=O)c1ccccc1C2=O + Cc1cc([N+](=O)[O-])ccc1NS(=O)(=O)c1cc(Cl)ccc1Cl [FH535] (first compound 0.0004 µM, partner dose 1 µM) | 87.5
33 | O=C(CCCCCCC(=O)Nc1ccccc1)NO [vorinostat] + COC(=O)c1sccc1S(=O)(=O)Nc1ccc(Nc2ccccc2)cc1OC [GSK0660] (first compound 0.08 µM, partner dose 1 µM) | 109
34 | Nc1cccc2c1CN(C1CCC(=O)NC1=O)C2=O (centres undefined) [lenalidomide] + Cn1cc(/C=C2\C(=O)Nc3cccnc32)c2ccccc21 [GW441756] (first compound 1 µM, partner dose 0.4 µM) | 103
